# Assay results from paper PMC4336329 (PLoS ONE, 2015).
# Out of some 310,000 compounds screened, about 14,000 (4.5%) showed an effect of 50% or more. The effect is printed as a negative number. Some of the results follow.
# Target: human ether-à-go-go-related gene (hERG) potassium channel (human, UniProt Q12809)
# Assay: primary screen, population patch clamp on CHO cells stably expressing hERG
# 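Further: peak tail current of the secondary pulse compared with the same well before compound.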
# human ether-à-go-go-related gene (hERG) potassium channel, sequence (Q12809 whole entry, looked up): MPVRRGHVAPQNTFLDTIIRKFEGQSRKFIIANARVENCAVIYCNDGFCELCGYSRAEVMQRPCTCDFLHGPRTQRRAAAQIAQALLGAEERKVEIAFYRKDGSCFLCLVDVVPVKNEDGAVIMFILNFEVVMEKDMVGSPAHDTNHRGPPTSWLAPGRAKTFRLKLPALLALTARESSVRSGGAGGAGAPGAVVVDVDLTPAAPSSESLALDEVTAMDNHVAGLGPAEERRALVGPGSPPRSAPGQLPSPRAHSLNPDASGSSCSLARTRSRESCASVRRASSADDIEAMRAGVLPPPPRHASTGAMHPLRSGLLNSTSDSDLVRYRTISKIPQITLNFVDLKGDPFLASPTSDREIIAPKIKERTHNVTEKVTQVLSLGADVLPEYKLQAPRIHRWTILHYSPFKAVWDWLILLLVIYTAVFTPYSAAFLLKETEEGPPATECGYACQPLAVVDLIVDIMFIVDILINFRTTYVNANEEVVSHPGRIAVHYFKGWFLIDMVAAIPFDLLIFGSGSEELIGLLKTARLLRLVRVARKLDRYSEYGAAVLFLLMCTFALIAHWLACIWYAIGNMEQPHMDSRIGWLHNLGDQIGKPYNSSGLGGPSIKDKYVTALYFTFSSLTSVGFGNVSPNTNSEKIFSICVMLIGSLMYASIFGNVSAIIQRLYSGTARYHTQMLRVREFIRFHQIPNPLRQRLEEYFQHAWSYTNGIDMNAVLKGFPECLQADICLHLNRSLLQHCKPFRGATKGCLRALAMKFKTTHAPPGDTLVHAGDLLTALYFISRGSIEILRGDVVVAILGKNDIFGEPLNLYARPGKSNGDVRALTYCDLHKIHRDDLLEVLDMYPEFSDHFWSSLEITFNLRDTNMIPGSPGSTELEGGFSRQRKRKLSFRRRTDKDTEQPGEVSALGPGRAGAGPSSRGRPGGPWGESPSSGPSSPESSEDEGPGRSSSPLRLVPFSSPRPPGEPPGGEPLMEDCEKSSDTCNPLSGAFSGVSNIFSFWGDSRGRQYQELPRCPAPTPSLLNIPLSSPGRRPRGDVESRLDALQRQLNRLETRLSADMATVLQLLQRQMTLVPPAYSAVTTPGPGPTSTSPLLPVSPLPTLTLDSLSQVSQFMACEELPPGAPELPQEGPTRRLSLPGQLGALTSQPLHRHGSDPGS
row,SMILES,"hERG current change (%, negative = inhibition) at 10uM"
1,COc1ccc(OC)c(NC(=S)NCCCN2CCOCC2)c1,-3.09%
2,O=C(CSc1ncn(-c2ccccc2)n1)Nc1ccc2c(c1)OCO2,-32.5%
3,COC(=O)C1=C(C)N(C)C(=O)NC1c1ccc([N+](=O)[O-])o1 (centres unmarked),-5.76%
4,O=C(Nc1ccc(N2CCOCC2)c(Cl)c1)c1cccnc1Cl,-1.86%
5,Cc1ccn2c(c1)nc(=S)n2C(=O)c1ccccc1,-13.1%
6,Nc1nc(SCC(=O)N2CCCC2)[nH]c(=O)c1NC(=O)c1cccs1,20.2%
7,COc1ccccc1CCc1nnc(CCC(=O)NCC2CCCO2)o1 (centres unmarked),11.1%
8,COc1ccc(C)cc1S(=O)(=O)N1CCC2(CC1)OCCN2S(=O)(=O)c1cccs1,-16.5%
9,COc1ccc(N2CCN(C(=O)Nc3ccc(S(=O)(=O)N(C)C)cc3)CC2)cc1,6.8%
10,c1ccc(CCn2nnnc2CN2CCC(n3nnc4ccccc43)CC2)cc1,-36.4%
11,O=C(CCC(=O)N1CCOc2ccccc21)NCCN1CCOCC1,-0.391%
12,CC(C)Cc1nc2sc3c(c2c(=O)n1N)CC(C)(C)OC3,8.18%
13,CCn1c(CSc2nc3ccccc3s2)nnc1SCC(=O)OC(C)(C)C,-31.9%
14,O=C(NC1CCCCCC1)C1CCN(S(=O)(=O)c2ccc(F)cc2)CC1,0.579%
15,NC(=O)c1ccsc1NC(=O)COC(=O)c1ccc(Cl)c(N)c1,-3.1%
16,Cc1nc2nc(-c3ccc(Cl)cc3)[nH]n2c(=O)c1Cc1ccccc1,6.69%
17,CCCCNC(=O)CCNS(=O)(=O)c1ccc(Br)cc1,-14.7%
18,O=[N+]([O-])c1ccc(C[n+]2cc(-c3ccc(Cl)c(Cl)c3)n3c2CCCCC3)cc1.[Br-],-15.7%
19,CC(C)Sc1nc2sccc2c(=O)n1-c1ccccc1,9.33%

row,SMILES,"hERG current change (%, negative = inhibition) at 10uM"
1,CC(C)(/C=N/O)/[N+]([O-])=C/C=[N+](\[O-])C(C)(C)/C=N/O,7.54%
2,COC1CCCN(Cc2nc(Cc3ccccc3F)no2)C1 (centres unmarked),21.4%
3,CCN(C(=O)COc1ncnc2scc(-c3ccc(F)cc3)c12)C1CCS(=O)(=O)C1 (centres unmarked),-14%
4,O=C(O)c1ccccc1NC(=S)NC(=O)c1sc2ccccc2c1Cl,22.6%
5,C/C(CC(=O)Nc1ccc2c(c1)OCO2)=N\NC(=O)C(c1ccccc1)c1ccccc1,-7.89%
6,O=C(NC(=S)NCc1ccc(F)cc1)c1ccccc1,-48.2%
7,O=C(CN1CCN(c2ccc(F)cc2)CC1)Nc1ccccc1Br,12.5%
8,Cc1ccc(S(=O)(=O)Nn2c(C)ccc2C)cc1,15.3%
9,CCOC(=O)c1cc(CC)sc1NC(=O)Cc1ccccc1,25.9%
10,CCOC(=O)C1CCN(C(=O)c2cc(C(C)(C)C)nn2Cc2ccccc2)CC1,-20%
11,CN1CCN(C(=S)NC(=O)c2ccc(S(=O)(=O)N3CCOCC3)cc2)CC1,28.9%
12,Cc1c(N/C(=N/S(=O)(=O)c2ccccc2)c2ccc(Cl)cc2)c(=O)n(-c2ccccc2)n1C,-30.7%
13,Cc1nn(Cc2ccccc2)c(C)c1C(=O)NCc1ccccc1,6.55%
14,CCN1CCN(C(=O)c2cn(CC)c3ccc(S(=O)(=O)N(C)C)cc3c2=O)CC1,16%
15,CCN(CC(=O)NCc1ccc(Cl)cc1)C(=O)CSCC(=O)Nc1ccc(OC)cc1,-66.7%
16,Cc1onc(-c2ccccc2Cl)c1C(=O)N[C@@H]1C(=O)N2[C@@H]1SC(C)(C)[C@@H]2C(=O)[O-].[Na+],9.2%
17,CC(Cc1ccccc1)NC(=O)c1ccc([N+](=O)[O-])cc1 (centres unmarked),-20.9%
18,C=CCN=C(NC#N)SCc1ccccc1Cl,0.978%
19,CCCCc1nc2ccccc2c(N)c1CCC.O=C(O)c1cc([N+](=O)[O-])ccc1Cl,-66.4%

row,SMILES,"hERG current change (%, negative = inhibition) at 10uM"
1,CCCCC(=O)N(c1ccc(OC)cc1)C1C=CS(=O)(=O)C1 (centres unmarked),7.86%
2,CCN1C(=O)/C(=C/c2c(C)nn(C)c2C)SC1=S,-12.9%
3,COc1ccccc1/C=C1\SC(=S)N(CCC(=O)NC2=NCCS2)C1=O,21.2%
4,Cl.N=c1sccn1CC(=O)N1N=C(c2ccc(Cl)cc2)CC1c1ccco1 (centres unmarked),-79.5%
5,COc1ccc(Cl)cc1NC(=O)c1nc2nc(C)cc(C(F)F)n2n1,2.44%
6,Cn1cccc1/C=C1/C(=O)NC(=O)N(Cc2ccccc2)C1=O,8.75%
7,Cc1ccc(CS(=O)(=O)Cc2ccc(C(=O)NC3CCCC3)o2)cc1,-6.12%
8,COCC(=O)N1CCN(c2ccc([N+](=O)[O-])cc2)CC1,-62.7%
9,Cc1c(C(=O)NC(=S)Nc2ccc(NC(=O)c3cccs3)cc2)oc2ccccc12,-3.23%
10,Cc1ccccc1OC1C(=O)N(Cc2ccc3c(c2)OCO3)C1c1sccc1C (centres unmarked),4.77%
11,C=CCNC(=O)CCCCCNS(=O)(=O)c1ccc(OC)cc1,-1.2%
12,O=C(NN1CCOCC1)c1ccccc1F,13.9%
13,O=C(C1CCN(S(=O)(=O)Cc2ccccc2)CC1)N1CCCc2ccccc21,-24.1%
14,Cc1cccc(N2CCN(S(=O)(=O)c3ccc(-c4cc(C)no4)s3)CC2C)c1 (centres unmarked),20.7%
15,Cc1c(C(=O)/C=C/N(C)C)nnn1-c1ccc(Cl)cc1Cl,14.2%
16,C=CCN(CC=C)S(=O)(=O)c1ccc(C(=O)Nc2nnc(CSC)o2)cc1,5.45%
17,COc1ccc(OC)c(/C=C2\N=C(c3ccccc3)OC2=O)c1,15.4%
18,CCN1CCN(Cc2ccc(NC(=O)c3ccc(C)c(NC(=O)c4cc(-c5ccc(Br)cc5)n[nH]4)c3)cc2C(F)(F)F)CC1,11.9%
